# Laboratory results taken from PubChem BioAssay AID1508642 (National Center for Advancing Translational Sciences (NCATS), 2021).
# About 200 (0.47%) of roughly 43,000 compounds were called active. Inconclusive results (about 12%) are left out. Calls follow the shape of the dose curve; as a rule, active = well fitted cell-killing curve with a large enough effect; inconclusive = small, poorly fitted or top-dose-only effect, or effect the other way; inactive = flat fitted curve, though single readings scatter. The list shows a part of the results.
# Assay: Cell viability qHTS assay in S16 Pmp22-F2sN cells; also: nearly all actives have a fitted effect of over 65% in size
# Conditions: S16 Pmp22-F2sN Schwann cells viability, CellTiter-Glo, 24 h; series mostly up to 57.5 µM; activity change, negative = cytotoxicity: at the top concentration
# Summary of the method: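 S16 Pmp22-F2sN Schwann cells (500-1,000/well) in phenol-red-free DMEM with 10% FBS received 23 nL compound by pin tool for 24 h at 37 °C. Viability was then read as CellTiter-Glo luminescence after 15 min at room temperature.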
# % is scaled to controls: 0 for no effect and ±100 for the full control effect.
row,Structure (SMILES),"activity change, negative = cytotoxicity"
1,O=C(c1cc2c(=O)oc3ccccc3c2s1)N1CCN(c2ccccc2)CC1,inactive: 1.12%
2,Cc1ccc(-n2nc(C)c3c(C)cc(=O)n(CC(=O)Nc4cccc(C)c4C)c32)cc1,inactive: -10.5%
3,O=C(Nc1cc2c(cc1C(=O)c1ccccc1Br)OCCO2)c1cccc(Cl)c1,inactive: 5.16%
4,COc1ccccc1CNc1ncnc2c1cnn2-c1ccc(C)cc1,inactive: -2.76%
5,Cc1nc(-n2nc(C)c(CCC(C)C)c2C)sc1C(=O)Nc1ccc(Cl)cc1,inactive: -3.13%
6,COc1ccc(N2C(=O)CSC23C(=O)N(Cc2cccc(F)c2)c2ccccc23)cc1Cl (stereo not given),inactive: 14.3%
7,O=S(=O)(c1ccc2nc(N3CCN(c4ccccc4F)CC3)ccc2c1)N1CCCCC1,inactive: 2.17%
8,CCc1ccc(NS(=O)(=O)c2[nH]ncc2C(=O)OC)cc1,inactive: 19%
9,Cc1ccccc1Cn1c(=O)n(-c2ccc(Cl)cc2)c(=O)c2c3c(sc21)CCCC3,inactive: 3.11%
10,CC(C)NC(=O)CN1C(=O)CCn2nc(-c3cn(C)c4ccccc34)cc21,inactive: 7.39%
11,COCCNC(=O)CCCn1c(SCC(=O)NCc2ccc(C)cc2)nc2c(sc3ccccc32)c1=O,inactive: 1.61%
12,CCC(C)NC(=O)c1sc2nc(C)c(C(=O)Nc3ccc(C)cc3C)c(-c3ccc(NC(C)=O)cc3)c2c1N (stereo not given),inactive: -16.5%
13,O=C(O)c1ccc(Cn2c(SCc3ccc(F)cc3)nc3ccncc32)cc1,inactive: -0.198%
14,COCCNc1ccc2cc(S(=O)(=O)N3CCCCC3)ccc2n1,inactive: 3.77%
15,Cc1ccc2nc(NC(=O)CSc3nccn3Cc3ccc(F)cc3)sc2c1,inactive: -1.4%
16,COc1cccc(N2CCN(C(=O)CN3CCSc4ccccc43)CC2)c1,inactive: 2.29%
17,Cc1ccccc1NC(=O)c1sc2nc3c(cc2c1N)CN(Cc1ccccc1)CC3,inactive: -23.4%
18,CCCS(=O)(=O)N1CCC(C(=O)NCCOC)CC1,inactive: -7.45%
19,Cc1cc(F)ccc1NC(=O)C1CCC(CNS(=O)(=O)c2ccc3c(c2)CCCC(=O)N3)CC1 (stereo not given),inactive: -2.1%
20,O=C(Nc1sc2c(c1C(=O)NCC1CCCO1)CCCC2)c1cc(=O)c2ccccc2o1 (stereo not given),inactive: 1.62%
21,O=C(CCn1c(=O)c2sccc2n(Cc2ccc(F)cc2Cl)c1=O)NCc1ccc2c(c1)OCO2,inactive: 6.08%
22,Cc1ccc(-c2nc3ccccc3o2)cc1NC(=O)Cc1ccc(Cl)cc1,inactive: 4.79%
23,Cc1cccc(-c2nc(CN3CCCC(C(=O)NCCc4ccc(Cl)cc4)C3)c(C)o2)c1 (stereo not given),inactive: -25.2%
24,Cc1ccccc1CCNC(=O)c1ccc2c(c1)nc1n2CCCCC1,inactive: 0.0726%

row,Structure (SMILES),"activity change, negative = cytotoxicity"
1,Cc1cc(C)cc(NC(=O)C2CC(=O)N(c3ccccc3)C2)c1 (stereo not given),inactive: -2.8%
2,Cc1ccc2c(c1)c1c(c(=O)n(Cc3ccccc3)c(=O)n1CC(=O)Nc1ccccc1F)n2C,inactive: 3.9%
3,Cc1ccc(-c2cc(C(=O)Oc3ccc(C#N)cc3)no2)cc1C,inactive: -3.38%
4,O=C(NCc1ccccc1)C(=O)Nc1c2c(nn1-c1ccccc1)CSC2,inactive: -24.2%
5,Cc1cc(-c2ccc(C)c(S(=O)(=O)NCC3CCN(Cc4ccccc4F)CC3)c2)on1,inactive: -23.1%
6,Cc1ccc(SCC(=O)Nc2ccc3oc(-c4cccc(Cl)c4)nc3c2)cc1,inactive: 1.72%
7,COc1ccc(OC)c(CNCc2c(C(=O)O)n(Cc3cccc(F)c3)c3cc(OC)ccc23)c1,inactive: -17.1%
8,Cc1ccc(C(c2c(O)cc(C)n(Cc3ccco3)c2=O)N2CCC(C)CC2)cc1 (stereo not given),inactive: 14.8%
9,COc1ccc(CC(=O)NCC(c2ccc(Cl)cc2)N2CCOCC2)cc1 (stereo not given),inactive: 15%
10,Cc1ccc(C)c(Cn2c(=O)n(-c3ccc(Cl)cc3)c(=O)c3c(C)c(C)sc32)c1,inactive: 7.09%
11,Cc1ccc(Cn2c(=O)n(Cc3ccco3)c(=O)c3oc4ccccc4c32)cc1,inactive: -1.89%
12,CCOc1ccc(OCC)c(NC(=O)c2cnc(SC)nc2-c2ccccc2)c1,inactive: -15.5%
13,Cc1ccc(C)c(NC(=O)CSc2nc3c([nH]c4ccccc43)c(=O)n2-c2ccc(F)cc2)c1,inactive: -22.6%
14,Cc1ccc(Cc2cn3cc(-c4ccccc4)nc3s2)cc1,inactive: 6.37%
15,Cc1ccc(C)c(Oc2nc3c(c(=O)n(C)c(=O)n3C)n2Cc2ccccc2)c1,inactive: 7.61%
16,Cc1ccc(S(=O)(=O)c2nnn3c2nc(NC2CCCCC2)c2sccc23)cc1,inactive: -24%
17,CN(C)S(=O)(=O)c1ccc2c(c1)nnn2CCNC(=O)Nc1ccc(Cl)cc1,inactive: -26.4%
18,Cc1ccc2c(=O)cc(C(=O)Nc3ccc(S(=O)(=O)N4CCCCCC4)cc3)oc2c1,inactive: 12.3%
19,O=C(CSc1nc(=O)n(Cc2ccco2)c2c1CCC2)Nc1ccccc1C(F)(F)F,inactive: -2.89%
20,CCCCNC(=O)c1ccccc1NC(=O)CN(c1ccccc1)S(=O)(=O)N(C)C,inactive: 23.6%
21,Cc1ccc(Cl)cc1N1CCN(C(=O)c2cc(S(=O)(=O)N3CCCC3)c[nH]2)CC1,inactive: -18.5%
22,CCc1ccc(NC(=O)C2CCCN(S(=O)(=O)c3ccc(F)cc3)C2)cc1 (stereo not given),inactive: 1.5%
23,CCc1nnc(SCC(=O)N(CC)c2ccccc2)c2cc3oc(C)cc3n12,inactive: 6.44%
24,CC(=O)N1CCCc2cc(S(=O)(=O)N3CCC(C(=O)NCc4ccccc4)CC3)ccc21,inactive: 3.63%

row,Structure (SMILES),"activity change, negative = cytotoxicity"
1,CCN(Cc1ccccc1)C(=O)Cn1c(=O)n(-c2ccc(Cl)cc2)c(=O)c2c(C)c(C)sc21,inactive: 13%
2,COc1ccc(OC)c(CCNC(=O)CCn2c(=O)c3cccn3c3ccc(F)cc32)c1,inactive: -0.165%
3,Cc1cccc(S(=O)(=O)c2cn(C)c3cc(N4CCN(c5ccc(F)cc5)CC4)c(F)cc3c2=O)c1,inactive: 3.14%
4,CC(C)c1ccc(NC(=O)CSC2=Nc3ccccc3C3=NC(CCC(=O)NCc4ccco4)C(=O)N23)cc1 (stereo not given),inactive: -1.9%
5,Cc1ccc(CN2CCCN(Cc3c(C)cc(C)cc3C)S2(=O)=O)cc1,inactive: 2.98%
6,CCCSC1=NC2(CCN(C(=O)NC3CCCCC3)CC2)N=C1c1ccc(Cl)cc1,inactive: -0.771%
7,Cc1cccc(CSc2nc(-c3cccc(C)c3)nc3c2Cc2c(CO)cnc(C)c2O3)c1,inactive: 15.7%
8,Cc1ccc(CNC(=O)CCS(=O)(=O)c2cc3c(cc2C)NC(=O)CO3)cc1,inactive: 11.3%
9,O=C(CSc1nc2c(oc3ccccc32)c(=O)n1Cc1ccco1)Nc1ccccc1,inactive: 6.6%
10,Cc1nn(Cc2noc(C(=O)NC(C)c3ccccc3)n2)c(C)c1Br (stereo not given),inactive: -0.159%
11,Cc1ccc(N2CCN(S(=O)(=O)c3c(C)[nH]c(=O)[nH]c3=O)CC2C)cc1 (stereo not given),inactive: 10.3%
12,CCCN(CCC)c1nn2c(=O)c(C(=O)NCc3cc(Br)ccc3OC)cnc2s1,inactive: 12.6%
13,COc1cc(Cl)c(C)cc1NC(=O)Cn1cc(S(=O)(=O)N2CCC(C)CC2)c2ccccc2c1=O,inactive: 2.19%
14,COc1ccc(C)cc1NC(=O)COCc1cc(-c2ccc(F)cc2)on1,inactive: 10.6%
15,CC(C)(C)C(=O)OCc1cc(=O)n2nc(C3CC3)sc2n1,inactive: 8.32%
16,CCCn1cc(S(=O)(=O)c2ccc(OC)cc2)c(=O)c2cc(F)c(N3CCCC(C)C3)cc21 (stereo not given),inactive: -27.4%
17,CC(=O)c1ccc(NC(=O)C2=CC(c3ccc(C)cc3)=NS(=O)(=O)N2C)cc1,inactive: -15.2%
18,CCOc1ccc(-c2nonc2NC(=O)c2oc3ccc(C)cc3c2C)cc1OCC,inactive: -0.6%
19,COc1ccc(Cn2ccn(Cc3cccc(Cl)c3)c(=O)c2=O)cc1,inactive: 13.2%
20,Cc1ccc(S(=O)(=O)Cc2nc(-c3ccc(C(=O)NCc4ccccc4C)cc3)oc2C)cc1,inactive: 6.59%
21,CCCCCOC(=O)CSc1nc2sc3c(c2c(=O)n1-c1ccccc1)CC(C)(CC)OC3 (stereo not given),inactive: 20.9%
22,Cc1ccc(C(=O)Nc2nc3nc(-c4ccccc4)cc(=O)n3[nH]2)cc1,inactive: -4.51%
23,CCOC(=O)c1noc2ncnc(N3CCN(c4cccc(C(F)(F)F)c4)CC3)c12,inactive: 2.33%
24,CC1CCN(C(=O)Cn2cc(SCC(=O)Nc3ccccc3)c3ccccc32)CC1,inactive: 10.5%

row,Structure (SMILES),"activity change, negative = cytotoxicity"
1,COc1cccc(-c2nc(SCC(=O)NCc3ccco3)c3c(=O)n(C)c(=O)n(C)c3n2)c1,inactive: 14%
2,CCOC(=O)c1c(-c2ccc(C)cc2)csc1NC(=O)c1cc(=O)c2cc(C)cc(C)c2o1,inactive: 19%
3,COc1cc(NC(=O)c2c3c(nc4ccccc24)C(=O)N(C2CCCCC2)C3)cc(OC)c1,inactive: 3.65%
4,COc1ccc(-n2c(SCc3ccccc3F)nc3c([nH]c4ccccc43)c2=O)cc1OC,inactive: 10.8%
5,O=C(CSc1c2c(nc3cc(Cl)ccc13)CCCC2)N1CCN(c2ccccc2)CC1,inactive: 14.4%
6,COc1ccc(-c2cc(C)no2)cc1S(=O)(=O)NCc1ccco1,inactive: -7.06%
7,CCN(CC)S(=O)(=O)c1ccc2c(c1)c(=O)c(C(=O)NCc1ccccc1Cl)cn2C,inactive: -28.5%
8,COc1ccc(Cl)cc1C(=O)NCc1nnnn1-c1ccccc1,inactive: -5.13%
9,O=C(Nc1sc2c(c1C(=O)NCc1ccccc1)CCCC2)c1cc(=O)c2ccccc2o1,inactive: 3.18%
10,COc1cccc(N2CCN(C(=O)Cn3nc(C)n4c(cc5c(OC)cccc54)c3=O)CC2)c1,inactive: 15.9%
11,COC(=O)c1c(NC(=O)COc2ccc(Cl)cc2)sc(C)c1C,inactive: 0.709%
12,COCc1cc(C)nc2c1C(=O)NC(c1ccc(Br)cc1)N2Cc1ccccc1 (stereo not given),inactive: 26.1%
13,COc1cc(Cl)c(C)cc1NC(=O)Cn1c2ncccc2c(=O)n1-c1ccccc1,inactive: 8.91%
14,CCOc1ccccc1C(=O)NCC(c1cccs1)S(=O)(=O)c1ccc(F)c(C)c1 (stereo not given),inactive: 19.5%
15,CCc1ccc(NC(=O)CSc2nc3c(c(=O)[nH]2)CN(Cc2ccc(C)cc2)CC3)cc1,inactive: 10.2%
16,O=C(NCc1ccc(Cl)cc1)C1CCN(c2ncnc3c2nc2n3CCCCC2)CC1,inactive: 3.93%
17,COc1cc(NC(=O)C2=CC(c3ccco3)=NS(=O)(=O)N2C)cc(OC)c1OC,inactive: -1.99%
18,CCCCn1c(=O)c2oc3ccccc3c2n(Cc2ccccc2C)c1=O,inactive: 16.4%
19,CCOC(=O)c1[nH]c2c(c1Cc1ccccc1OC)C(=O)CC(c1ccccc1)C2 (stereo not given),inactive: -17.6%
20,O=C(COc1ccc(F)cc1)Nc1ccccc1C(=O)OCc1cc(=O)n2ccsc2n1,inactive: 4.14%
21,COCCc1nn2c(=O)cc(COC(=O)c3ccccc3C)nc2s1,inactive: -2.54%
22,Cc1ccc(C)c(N2CCN(C(=O)c3ccc4c(=O)n(CCc5ccccc5)c(=O)[nH]c4c3)CC2)c1,inactive: 1.64%
23,O=C(Nc1cc(-c2ccc(Cl)cc2)no1)c1ccc(F)cc1,inactive: -5.06%
